Results as given in the supplement of paper PMC6609913.
Where a name gives a salt, the structure may show the parent alone. ± gives the standard deviation of the averaged measurements. Whole data set: some 1,300 compounds, median “normalised cell viability” near 1, cut for the lowest 2% near 0.15. The list shows a part of the results.

Tested on: V-C8 + BRCA2 (BRCA2-proficient hamster cells)
Test: normalised cell viability (fraction of plate median); higher = more viable cells (less toxic)
Details: 5 µM
In short: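 Hamster V-C8 cells with and without restored BRCA2 were exposed in 96-well plates to library drugs at 5 μM for 3 days (screen 1) or 6 days (screen 2). Cell viability was scored by resazurin assay, then median-plate normalised, averaging triplicate wells.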

Compound | normalised cell viability (treatment time: 3 days) | normalised cell viability (treatment time: 6 days)
C=C[C@H]1CN2CC[C@H]1C[C@@H]2[C@@H](O)c1ccnc2ccc(OC)cc12 [Quinidine hydrochloride monohydrate] | 0.996 ± 0.033 | 0.972 ± 0.046
Cc1cccc(C)c1NC(=O)C1CCCCN1C (centres undefined) [Mepivacaine hydrochloride] | 1.13 ± 0.18 | 1.04 ± 0.028
CN1C(C(=O)Nc2ccccn2)=C(O)c2sccc2S1(=O)=O [Tenoxicam] | 1.04 ± 0.016 | 0.973 ± 0.022
Cc1ncc([N+](=O)[O-])n1CC(O)CCl (centres undefined) [Ornidazole] | 0.996 ± 0.069 | 0.9741 ± 0.0077
COc1cc2c(cc1OC)C(=O)C(CC1CCN(Cc3ccccc3)CC1)C2 (centres undefined) [Donepezil hydrochloride] | 1.007 ± 0.0092 | 1.05 ± 0.074
CCCCC(CC)CN1CN(CC(CC)CCCC)CC(C)(N)C1 (centres undefined) [Hexetidine] | 1.03 ± 0.044 | 0.997 ± 0.093
O=C(CCCN1CCC(O)(c2ccc(Br)cc2)CC1)c1ccc(F)cc1 [Bromperidol] | 0.976 ± 0.027 | 0.979 ± 0.038
CC(=O)c1ccc2c(c1)N(CCCN1CCC(CCO)CC1)c1ccccc1S2 [Piperacetazine] | 0.941 ± 0.085 | 0.919 ± 0.087
CO[C@@]1(NC(=O)Cc2cccs2)C(=O)N2C(C(=O)O)=C(COC(N)=O)CS[C@@H]21 [Cefoxitin sodium salt] | 1 ± 0.024 | 1.05 ± 0.037
COc1cc(Cc2cnc(N)nc2N)cc(OC)c1OC [Trimethoprim] | 1.05 ± 0.019 | 1.07 ± 0.027
COCC1=C(C(=O)OC(C)OC(=O)OC(C)C)N2C(=O)[C@@H](NC(=O)/C(=N\OC)c3csc(N)n3)[C@H]2SC1 (some centres undefined) [Cefpodoxime proxetil] | 1.03 ± 0.046 | 1.01 ± 0.05
CCN(CC)CCOC(=O)C(c1ccccc1)C1CCCCC1 (centres undefined) [Drofenine hydrochloride] | 1.02 ± 0.066 | 1.02 ± 0.025
N[C@@H]1CCCCN(c2c(F)cc3c(=O)c(C(=O)O)cn(C4CC4)c3c2Cl)C1 [Besifloxacin hydrochloride] | 1.04 ± 0.049 | 1.03 ± 0.021
CCOc1ccccc1OCC1CNCCO1 (centres undefined) [Viloxazine hydrochloride] | 0.994 ± 0.032 | 1.01 ± 0.072
CC[C@H]1OC(=O)[C@H](C)[C@@H](O[C@H]2C[C@@](C)(OC)[C@@H](O)[C@H](C)O2)[C@H](C)[C@@H](O[C@@H]2O[C@H](C)C[C@H](N(C)C)[C@H]2O)[C@](C)(OC)C[C@@H](C)C(=O)[C@H](C)[C@@H](O)[C@]1(C)O [Clarithromycin] | 1.02 ± 0.053 | 0.997 ± 0.081
CCCCC1=NC2(CCCC2)C(=O)N1Cc1ccc(-c2ccccc2-c2nnn[nH]2)cc1 [Irbesartan] | 1.01 ± 0.031 | 1.04 ± 0.058
CCCCOC(=O)c1ccc(N)cc1 [Butamben] | 0.83 ± 0.12 | 1.06 ± 0.029
N=C(N)NC(=O)c1nc(Cl)c(N)nc1N [Amiloride hydrochloride dihydrate] | 0.884 ± 0.1 | 0.98 ± 0.038
O=C1NCN(c2ccccc2)C12CCN(CCCC(c1ccc(F)cc1)c1ccc(F)cc1)CC2 [Fluspirilen] | 0.663 ± 0.036 | 0.405 ± 0.069
CC(C)(C)C(=O)OCOC(=O)[C@@H]1N2C(=O)[C@@H](NC(=O)[C@H](N)c3ccccc3)[C@H]2SC1(C)C [Pivampicillin] | 1.01 ± 0.022 | 1.01 ± 0.013
Cc1cc(C2CCCCC2)n(O)c(=O)c1 [Ciclopirox ethanolamine] | 0.203 ± 0.0053 | 0.206 ± 0.014
COc1cc(C(=O)NS(=O)(=O)c2ccccc2C)ccc1Cc1cn(C)c2ccc(NC(=O)OC3CCCC3)cc12 [Zafirlukast] | 1.06 ± 0.012 | 1.03 ± 0.031
